# Data: ChEMBL document CHEMBL4888484, “Replenishing the malaria drug discovery pipeline: Screening and hit evaluation of the MMV Hit Generation Library 1 (HGL1) against asexual blood stage Plasmodium falciparum ,using a nano luciferase reporter read-out” (2022)
# In all, about 150,000 compounds went through this assay and about 540 (0.36%) showed an effect of 50% or more. This is one part of the list.
# Tested on: Plasmodium falciparum
# Assay: Primary screen in NF54 nanoGlo assay, in single point, at 2uM, 72h; a lower Z score goes with more inhibition
# Format: functional, Erythrocyte
# Settings: timepoint 72 hour
Compound,% Inhibition [%],Z score
Cn1c(=O)[nH]c(=O)c2[nH]c(CCc3nc4ccccc4[nH]3)nc21,5,-0.71
CCCN(CCC)CCOC(=O)c1sc(C)nc1C,-4,0.57
COc1ccc(C2=NOC(CNC(=O)CN3CCCC3C)C2)cc1F (configuration not stated),-7,1.13
OC[C@H](Nc1ccncn1)[C@@H](O)c1ccccc1,-1,0.11
Cc1nc(-c2csc(S(=O)(=O)NC3CCCCCC3)c2)no1,-2,0.19
CCCc1nccn1-c1cc(O)c(F)c(F)c1,-7,1.01
Cc1n[nH]c(C)c1CNC(=O)N1C[C@H]2CC=CC[C@H]2C1,-20,3.48
CCC[C@@H](C#N)NC(=O)Cc1ccc(C)s1,-8,1.45
Fc1ccccc1-c1ccc([C@H]2c3nc[nH]c3CCN2Cc2ncc[nH]2)o1,11,-2.03
Cc1cnc(C(=O)N2CCC[C@H]2c2ccnn2C)c(C)c1,-7,0.85
CCCN(CCC)C(=O)c1cc(-c2cccc(F)c2)n2nc(C(C)(C)C)cc2n1,-10,1.11
O=C(c1ccc(Cl)cc1Br)N1CC[S+]([O-])CC1,-1,0.15
CCCc1nnc(NC(=O)CN2CC(O)C2)s1,-8,1.03
CCC(=O)N(CCOC)Cc1c(-c2cccc(C)c2)noc1N1CCOCC1,-17,1.67
C[C@@H](CN(C)CC1(CO)CCC1)c1ccccc1,-2,0.42
O=C(Cn1cnc2c(-c3ccccc3)nsc2c1=O)NCCc1ccc(Cl)cc1,-3,0.52
CNC(=O)CN1CC=C(C(F)(F)F)CC1,-8,1.56
Cc1ccc(C(=O)N2CCC(n3cnnc3-c3ccccc3)CC2)cc1,0,-0.05
CCc1ncc(C(=O)Nc2nc3ccc(Br)cc3n2CC)s1,21,-2.36

Compound,% Inhibition [%],Z score
Cc1cnc(C(=O)N(CCC(C)C)C2CC2)cn1,0,-0.01
FC(F)(F)Cn1ccnc1-c1ccccn1,-5,0.83
CCO[C@H]1CN(C(=O)CCS(=O)(=O)c2ccccc2)C[C@@H]1O,-5,0.86
NC(=O)CC[C@@H]1N[C@]2(C(=O)Nc3ccccc32)[C@@H]2C(=O)N(c3ccc(Cl)cc3)C(=O)[C@H]12,2,-0.47
Cc1ccccc1CC(=O)N[C@H]1CC(=O)N(CCCc2ccccc2)C1,-8,1.45
CN(C)c1ccc(-c2nnc(-c3ccc(Cl)cc3)o2)cc1,-51,5.95
O=C1Nc2ccc(C3CCCC3)cc2C1=O,-1,0.09
Cc1ccccc1[C@H]1C[C@@H](O)[C@@H](O)[C@@H]1NC(=O)c1ccccn1,35,-3.91
COc1cc(-c2n[nH]c(C)c2NC(=O)Nc2cccc(Cl)c2)cc(OC)c1OC,0,0.03
COc1ccc(-n2cnnc2-c2[nH]cnc2C)cc1,-3,0.61
O=C(NCc1cccc(F)c1F)N1CCCCCCC1,10,-1.23
CC(CC(=O)N1CCCC(S(C)(=O)=O)C1)c1ccc(F)cc1 (configuration not stated),-13,1.79
Cc1c([C@H](C)NC(=O)N(CC2CCC2)C(C)C)cnn1C,-11,1.43
COCc1cccc(C(=O)NCc2csc3c2CCCC3)n1,-14,2.96
COc1ccc(CNC(=O)CN2C(=O)C(C)(C)c3cc(Cl)ccc32)cc1,-9,1.51
CN(CCN(C)C1CCCCC1)C(=O)c1cnn2cccnc12,14,-1.86
Nc1nc2c(s1)C[C@@H](NC(=O)C(O)CCc1ccccc1)CC2 (some centres not stated),-9,1.6
CN(C(=O)Cc1ccnc(O)c1Br)c1ccccc1F,2,-0.34
C[C@@H](CC(=O)N1CCC(NC(=O)c2ccncc2)CC1)c1ccc(F)cc1,-8,1.06

Compound,% Inhibition [%],Z score
COc1ccc(-c2noc(CCN(C(=O)c3ccco3)[C@@H](C)c3ccccc3)n2)cc1OC,-13,1.81
CCOc1ccc(N2C(=O)N[C@H]3C[C@@]2(C)Oc2c(OC)cc(Br)cc23)cc1,-7,1.1
O=C(CN1CC[C@H](c2ccccc2)C1)N1CCCN(C2CCCCC2)CC1,9,-1.63
CCCCc1nc(C)cc(NCCNC(=O)N2CCOCC2)n1,-1,0.24
COC1CC2CCC(C1)N2S(=O)(=O)c1ccc(F)c(C)c1 (configuration not stated),-19,2.41
COc1ccc([C@H](c2sc3ncnn3c2O)N2CCCCCC2)c(OC)c1OC,6,-0.74
Cc1noc(C)c1C(=O)N(CCc1ccccc1)c1ccccc1,-13,1.94
Cc1cc(C)nc(O[C@H]2CCN(C(=O)c3ncccn3)C2)n1,-10,1.52
CC(C)(C)OC(=O)NC1CCCCCC1C(=O)O (configuration not stated),31,-3.45
O=C(NCC1CC12CCc1ccccc12)N(CCO)C1CC1 (configuration not stated),-9,1.42
CCC(=O)N1C[C@H](NC(=O)OC(C)(C)C)[C@@H](c2ccccc2F)C1,-4,0.84
COc1ccccc1Nc1ccccc1C(=O)N(C)c1nncs1,-1,0.07
CC(=O)N1CCC2(CC1)CN(Cc1ccccc1)C[C@H](C)O2,-3,0.6
Cc1nc([C@H](C)NC(=O)CNC(=O)N(C)C)n[nH]1,-8,1.31
COc1ccc(-c2cnn(CC(=O)Nc3cc(F)cc(F)c3)c(=O)n2)cc1,4,-0.52
Cc1nc(C(C)C)sc1[C@H](C)N(C)Cc1ccsc1C(=O)O,-7,1.15
Cc1nnc(COc2cccc3c2OCCO3)s1,-12,2.16
c1ncc(CN2CCC(CCCN3CCOCC3)CC2)s1,-4,0.4
